The source gives no read counts; variants with many changes may rest on few reads.
B1: LINE1-mini (parent)
chain: GGCAGAGCUCAACACAGCGUGGCAAAGUGGCUGUGGCUAGACUGCC

Variants of: B1
Experiment: self-cleavage, relative activity (ratio to wild type); higher = more cleavage; in vitro, sequencing; the parent is a self-cleaving ribozyme

| Variant | self-cleavage |
| --- | --- |
| C8A G30U A39G G40A | 0.01 |
| C8G C13G A16U G27A G29U C37G | 0.06 |
| C8G C10G A12C U32G G36A | 0.01 |
| C8A U9A C31A | 0.05 |
| C8G A16G U28A | 0.06 |
| C8A G19C U20G A25C A26G C31G | 0.01 |
| C8G C15G A25G | 0.02 |
| C8A G19U G27A U28C C31G A41C | 0.03 |
| C8A U9G U20G | 0.02 |
| C8G C10A C13A G21A A39U G44U | 0 |
| C8A U28C G29U | 0.25 |
| C8A G35C C42G | 0.26 |
| C8G C10U U43G | 0 |
| C8A G21A G40A | 0.27 |
| C8G C13G C23G | 0.01 |
| C8A G19A G29U C46A | 0.09 |
| C8G C15A G21A C23A | 0.19 |
| C8A U32A C45A | 0.09 |
| C8G C15A C23G A39G | 0.01 |
| C8A G22C G27A C37G | 0.05 |
| C8A G21U A39G G40C C42U C46A | 0.1 |
| C8A G30A U34A | 0.37 |
| C8G A12U A25G | 0.06 |
| C8A U9A C23G C31G | 0.06 |

| Variant | self-cleavage |
| --- | --- |
| C8G A11G C23G | 0 |
| C8A G21U C42G U43A | 0.1 |
| C8G A12G A14C C15A U38A U43A | 0.09 |
| C8A G17U A26U C31A | 0.25 |
| C8G A12U A14C C31A | 0.01 |
| C8A U20A U34A | 0.13 |
| C8G A16C U28G G36U U38C | 0.05 |
| C8A G19C C23A G36A | 0.1 |
| C8A G17C C31U | 0.07 |
| C8A G17C G40C | 0.17 |
| C8A U32G U34G | 0.13 |
| C8A U20G A25G U43G | 0.06 |
| C8G A14G A24G G40C | 0.02 |
| C8A G27U U28G | 0.07 |
| C8G A11C A14C A39U G40U | 0 |
| C8G C13G G35U | 0.12 |
| C8G C10U G17A G21A A39C | 0.07 |
| C8G A11C A14U C37U | 0 |
| C8A G19C A24G G36U | 0.27 |
| C8A U20G C23A A25C U28G C42U C45G C46G | 0.02 |
| C8G C13U C46A | 0.1 |
| C8A G19U A26U C45G | 1.76 |
| C8A U9A C15A A39U C42G | 0.16 |
| C8A G30U U43C | 0.33 |

| Variant | self-cleavage |
| --- | --- |
| C8G A12C C23A U32C G36U U38C | 0 |
| C8G A12G G17A A25G A26U U28C G33U C37U | 0.01 |
| C8G A16G G22A C23U C42U | 0.07 |
| C8A U9G G17A G27U G35U | 0.03 |
| C8G C15A G35U | 0.04 |
| C8A U9C A25U G30A G36A U38C | 0.06 |
| C8A U28G G36C | 0.23 |
| C8G A16C G27A C37A C42A | 0.01 |
| C8G A11U A14G C15U U32G | 0.01 |
| C8G A12U U28A C31U U34G | 0.02 |
| C8G A12C C15U U20C C37U C46U | 0 |
| C8G A12U G33U | 0.03 |
| C8G C10U A11C A12U A26C | 0.02 |
| C8A G40U C45G | 0.07 |
| C8A C37A G40U | 0.08 |
| C8A G22A U32C | 0.01 |
| C8G A16G G30A | 0.19 |
| C8A G35C U43C | 0.01 |
| C8A G17U A26U G35U | 0.18 |
| C8G C15A G17U G33U | 0.02 |
| C8A U9G G33U | 0.12 |
| C8G A26U C42U | 0.06 |
| C8A U9C A12G G36U G40A | 0.08 |
| C8A U28G G44U | 0.67 |

| Variant | self-cleavage |
| --- | --- |
| C8G C13A U20C G22C A25U A26G G27U A41C | 0.03 |
| C8G C10U G22U A25C U32C | 0.03 |
| C8G A12G A16C C31U | 0 |
| C8G C10A A12G G17U U34G A41G U43G C45G | 0.01 |
| C8A G19U G29U | 0.16 |
| C8A G29A G33U | 0.05 |
| C8G C10A C45A C46U | 0 |
| C8G C13U A26C A39U | 0.1 |
| C8A U34A C37A C46A | 0.05 |
| C8G C10A A14C C15A A16G | 0 |
| C8A G22C C23G A25G | 0.02 |
| C8G C10A A16G U32C | 0.03 |
| C8G A16G G29U C37U U43C | 0 |
| C8A C42A C46A | 0.11 |
| C8G A12U G29A | 0.07 |
| C8G A14U A24U | 0.04 |
| C8A G29C G40U C42A U43A | 0.03 |
| C8A U9C G40U | 0.04 |
| C8A U28A C37A | 0.06 |
| C8A C42U C46U | 0.4 |
| C8A U9A C10G A14C C18G | 0.01 |
| C8A G27C G44A | 0.13 |
| C8A U9C U20C G27U | 0.04 |
| C8A G22A C23U U38G A39U | 0.02 |

| Variant | self-cleavage |
| --- | --- |
| C8A G33A G35C | 0.03 |
| C8A U9G U28G | 0.03 |
| C8G A24U G27C | 0.09 |
| C8G C13A G35A G44A | 0.08 |
| C8A G17A U38A | 0.47 |
| C8G A14G A24U C31G | 0.08 |
| C8G A14C A25C C31A | 0.06 |
| C8A U9C C10G C18G G19A | 0.01 |
| C8A G21U U28G G30C A39U G40C | 0.02 |
| C8A G19A C42U | 0.08 |
| C8G C13A A16U U34C | 0.07 |
| C8G C13G A41C C42A | 0.12 |
| C8A G21C C46U | 0.73 |
| C8A G22C C45A | 0.07 |
| C8A U20C A26C G33U G35A G40A | 0.15 |
| C8G C10A C46G | 0.04 |
| C8G A11U A12C C13G G19U G22A C23G | 0.03 |
| C8G C15G A16U G19C | 0.01 |
| C8G C10A C23A G40A C45G | 0.01 |
| C8A U34G G36C | 0.04 |
| C8A G21A U32C | 0.57 |
| C8G A11C U20C | 0.01 |
| C8A U9G C18G | 0.06 |
| C8A G21U G33C G36U G40A | 0.01 |

| Variant | self-cleavage |
| --- | --- |
| C8G C10A C31U G35U | 0.01 |
| C8G A25G G36C G40U | 0.04 |
| C8A G17U G19A A25U G29U | 0.16 |
| C8A G21C U38G | 0.02 |
| C8A G33U C46G | 0.13 |
| C8A G27A C45G | 0.56 |
| C8A G17C G33U | 0.23 |
| C8A U20G A24G C37U U38C | 0.04 |
| C8G C13U G19U C37A | 0.48 |
| C8G C10A U34G | 0.01 |
| C8A U20C C23A A26U G27U | 0.05 |
| C8G C10G G17C C18U A25C U32C | 0.01 |
| C8A G19A G35U C37A C46U | 0.01 |
| C8G A16U G17A C45G | 0.13 |
| C8A G33C G35C | 0.23 |
| C8G A16C U28A G33U A39U | 0 |
| C8A U38C C46U | 0.36 |
| C8G C15U A25C G33U G35U | 0.04 |
| C8A G22A A26G U38C | 0.12 |
| C8A G30C U32A U38A | 0.02 |
| C8G A11C A41G | 0.02 |
| C8G C10U A16U | 0.05 |
| C8A U28C C45U | 0.27 |
| C8G A11G C13U G30A | 0.02 |

| Variant | self-cleavage |
| --- | --- |
| C8A G33A U34C | 0.09 |
| C8A G27U G29C C31U | 0.09 |
| C8G A16U U38G | 0.01 |
| C8G C13U G21C | 0.11 |
| C8A U9A C45A | 0.33 |
| C8G A12G G35U | 0.01 |
| C8A C42A C45A | 0.24 |
| C8A U9G A39G C45U | 0.04 |
| C8G C15G U20C U28C A41C | 0.03 |
| C8A U20A G21A G22C U28C G29U C37A | 0.01 |
| C8A G22C C23A | 0.27 |
| C8A G29U U32G | 0.96 |
| C8G A14C G22U A26U | 0.04 |
| C8A U9C A12U G17U A25U | 0.11 |
| C8A U9A A26U G29C | 0.03 |
| C8A U20A C31A G36U | 0.27 |
| C8G C13U G40C C45G | 0.05 |
| C8G A12G U28A | 0 |
| C8G A16U G22U A26U C31A C37G C42U | 0.16 |
| C8A G33U G40C | 0.24 |
| C8G C13G G30A U38G | 0.24 |
| C8A G27A G33A C45A | 0.13 |
| C8A C31U G33U U34C U38A | 0.02 |

— the RNAGym collection of RNA variant scans (doi:10.7554/elife.90254)
